# Assay results taken from PubChem BioAssay AID504648 (National Center for Advancing Translational Sciences (NCATS), 2011).
# About 610 (0.16%) of roughly 390,000 compounds were called active. Not shown: some 4% with an inconclusive outcome. The call rests on the fitted dose curve; in most records, active means well fitted inhibition curve with a large enough effect; inconclusive means small, poorly fitted or top-dose-only effect, or effect the other way, or another doubt; inactive means no such curve, though single readings can be large or run the other way. The list shows a part of the results, in another mix than the full data.
# Test: Nrf2 qHTS screen for inhibitors: counterscreen for cytotoxicity
# Settings: A549 ARE-Fluc cells, CellTiter-Fluor viability, 18-24 h; series mostly up to 46 µM; activity change, negative = cytotoxicity: at the top concentration
# Description: NIH Molecular Libraries Probe Production Network [MLPCN]
# NIH Chemical Genomics Center [NCGC]
# Assay Provider: Shyam Biswal, Johns Hopkins University
# Nrf2 is a transcription factor that maintains cellular redox homoestasis and protects cells from xenobiotics. Nrf2 binds to the antioxidant response element (ARE) to induce gene expression of a broad spectrum of genes that encode for antioxidants. […] Finding a small molecule that act as an inhibitor of Nrf2 function would represent a novel therapeutic target that could lead to improvement in survival of patients undergoing chemo- and/or radio- therapy.
# So here we implemented a counterscreen to weed out the cytotoxic compounds.
# 1. Shibata, T., et al., Genetic Alteration of Keap1 Confers Constitutive Nrf2 Activation and Resistance to Chemotherapy in Gallbladder Cancer. Gastroenterology, 2008.
# 2. Sjoblom, T., et al., The consensus coding sequences of human breast and colorectal cancers. Science, 2006. 314(5797): p. 268-74.
# NCGC Assay Protocol Summary:
# A concentration-response assay was performed with A549 ARE_Fluc cells which are suspended in 5% FBS OPTI-MEM. Five uL were dispensed into 1536-well white TC-treated plate using the Kalypsys dispenser to achieve a density of 5000 cells/well in all columns except column 1. The plate is incubated at 37deg C at 5% CO2 for 2 hours before 23 nL of compounds are added with the Kalypsys pin tool equipped with a 1,536-pin array containing 10-nL slotted pins (FP1S10, 0.457-mm diameter, 50.8 mm long; V&P Scientific). The control compounds Budesonide and Staurosporine are both added at a concentration of 2mM and Budesonide is also added as a 1:10 titration, starting at 200uM, to achieve dose-response. After an 18-24 hour incubation at 37deg C at 5% CO2, 5ul of medium is added to column 1. Afterwards 1ul of 5x of CellTiter-Fluor (Promega) is added to every well. The plate is then incubated at 37deg C at 5% CO2 for 30 minutes before they are read on the ViewLux (Perkin Elmer) for a fluorescent read Ex=405(10)/Em=525(10) for a 3 second exposure, 2x binning, and high gain. Then 3 uL of 3x BugLite is dispensed into all wells and the plate is incubated at ambient room temperature for 15 minutes. Afterwards another ViewLux read is performed using the clear filter to get a luminescent read with the settings of 40 second exposure, 2x binning, and high gain. Cytotoxicity is assessed through the first fluorescent read and then biochemical activity against Nrf2 is measured in the luminescent read.
# On the % scale 0 is the no-effect control and ±100 the full control effect; potency means the concentration at half of the fitted maximal effect.
SMILES,"activity change, negative = cytotoxicity",Potency
O=C(N[C@@H]1C/C=C\C[C@@H](CC(=O)N(CCO)Cc2ccccc2)C(=O)N[C@H](Cc2ccccc2)COC1=O)OCC1c2ccccc2-c2ccccc21,inactive: -2.56%,–
COc1ccc2c(c1)N(C)/C(=C/c1cccc[n+]1C)S2,–,active: 16.4 µM
COc1cc2c(=O)c(C(=O)c3ccc(C)c(C)c3)cn(Cc3ccccc3F)c2cc1OC,–,active: 20.6 µM
COc1cc(OC)c2c(c1C(CCN1CCOCC1)c1ccc(N(C)C)cc1)OC(=O)CC2c1ccc(N(C)C)cc1 (stereo unspecified),inactive: -0.546%,–
C=CCC[C@H](Cc1ccc(F)cc1)C(=O)OC[C@H](C)NC(=O)[C@@H](CC=C)CC(=O)N[C@H](CO)Cc1ccccc1,inactive: -3.89%,–
CCc1ccc(NC(=O)C(NS(=O)(=O)c2cccc3nsnc23)c2ccccc2)cc1 (stereo unspecified),inactive: -6.86%,–
COc1ccc(CNc2ncnc3nc[nH]c23)cc1OC,inactive: 8.32%,–
CCOC(=O)/C(C#N)=C/c1c(OCC)n(CC)c2ccccc12,inactive: -9.97%,–
O=C1/C(=C\c2ccco2)SC(=S)N1C1CCS(=O)(=O)C1 (stereo unspecified),inactive: -16.6%,–
C=CCC[C@H](Cc1ccc(F)cc1)C(=O)OC[C@@H](Cc1c[nH]c2ccccc12)NC(=O)[C@@H](CC=C)CC(=O)N(CCO)Cc1ccccc1,–,active: 11.6 µM
COc1ccccc1[C@]1(C)ON(c2ccccc2C(F)(F)F)C1=O,inactive: -12.1%,–
O=C(Nc1nc2ccc([N+](=O)[O-])cc2s1)c1ccc(S(=O)(=O)N2CCCc3ccccc32)cc1,–,active: 9.2 µM
CC(C)NC[C@H](O)COc1ccc(CC(N)=O)cc1,inactive: -1.63%,–
c1cnc2c(c1)ccc1cccnc12,inactive: -29.2%,–
COc1cc(/C=C(\C#N)c2nc3ccccc3s2)cc([N+](=O)[O-])c1O,–,active: 20.6 µM
O=C(CCl)Nc1cc(SCC(O)CO)cc([N+](=O)[O-])c1 (stereo unspecified),–,active: 6.51 µM
Cc1cccc(NC(=O)COc2ccc(-c3nn(C)c(=O)c4ccccc34)cc2)c1,inactive: -21.2%,–
Cc1ccc(S(=O)(=O)/N=C2\C=C(Nc3ccc(O)cc3)C(=O)c3ccccc32)cc1,–,active: 16.4 µM
Cc1cccc(NC(=O)Cn2cc(C(=O)c3ccco3)c3ccccc32)c1,inactive: -19.5%,–
Cc1ccc(F)c([C@H]2[C@@H]3C=CCC[C@@]3(C)C(=O)N2Cc2ccccc2)c1,inactive: 5.86%,–
O=C(NC(Cc1ccccc1)C(=O)O)/C(=C/c1ccc(Br)cc1)NC(=O)c1ccc(Br)o1 (stereo unspecified),inactive: 5.2%,–
CC(C)OCCCN(C)C1CCN(S(=O)(=O)c2csc(C(N)=O)c2)CC1,inactive: -0.126%,–
CC1OC(Oc2c(-c3cc(O)c(O)c(O)c3)oc3cc(O)cc(O)c3c2=O)C(O)C(O)C1O (stereo unspecified),inactive: -12.2%,–
COc1ccc(NC(=O)CSc2c3c(nc4ccccc24)CCC3)c(OC)c1,inactive: -7.78%,–
O=c1cc(-c2ccc(O)c(O)c2)oc2cc(O)c(C3OC(CO)C(O)C(O)C3O)c(O)c12 (stereo unspecified),inactive: -1.16%,–
CCC1CN(S(=O)(=O)c2cc(-c3cc(C)no3)ccc2OC)c2cc(C)ccc2O1 (stereo unspecified),inactive: 27.8%,–

SMILES,"activity change, negative = cytotoxicity",Potency
CCOC(=O)CCCC(=O)Nc1ncnc2c1C(c1ccccc1)c1c(ccc3ccccc13)O2 (stereo unspecified),inactive: -0.414%,–
CC1=NN(c2ccccc2)C(=O)/C1=C\C=C1\N(C)c2ccccc2C1(C)C,inactive: -17.3%,–
O=C(C1CCC(CNS(=O)(=O)c2cccs2)CC1)N1CCN(c2ccc(Cl)cc2)CC1 (stereo unspecified),inactive: -11.6%,–
OCC1OC(n2ccc3c(NO)ncnc32)C(O)C1O (stereo unspecified),–,active: 2.06 µM
CCOc1ccc(CCNC(=O)CN2C(=O)c3cccnc3Oc3ccc(Cl)cc32)cc1,inactive: 3.27%,–
C=CC[C@H](CC(=O)N[C@H](CO)Cc1ccccc1)C(=O)N[C@H](COC(=O)[C@H](CC=C)CC(=O)OC(C)(C)C)Cc1c[nH]c2ccccc12,inactive: -14%,–
O=C(C[C@H]1C/C=C\C[C@@H](NC(=O)OCC2c3ccccc3-c3ccccc32)C(=O)O[C@@H](c2ccccc2)CNC1=O)N[C@H](CO)Cc1ccccc1,inactive: -22.8%,–
COc1cc(C(CCN2CCN(c3ccccc3)CC2)c2c(OC)cc(OC)c3c(C)cc(=O)oc23)cc(OC)c1OC (stereo unspecified),inactive: -18%,–
C/C=C(\C)C(=O)OC1CC(C)(C)C[C@H]2C3=CC[C@@H]4[C@@]5(C)CCC(O[C@@H]6O[C@@H](C(=O)O)[C@@H](O)C(O[C@@H]7OC[C@H](O)[C@@H](O)[C@@H]7O[C@@H]7OC(CO)C(O)[C@@H](O)[C@@H]7O)C6O[C@@H]6OC(CO)C(O)C(O)C6O)[C@@](C)(CO)[C@@H]5CC[C@]4(C)[C@]3(C)CC(O)[C@@]12CO (stereo partly specified),inactive: -21.6%,–
O=C(C[C@H]1C/C=C\CC[C@@H](Cc2ccc(F)cc2)C(=O)OC[C@H]2CCCN2C1=O)N[C@H](CO)Cc1ccccc1,inactive: 2.41%,–
Cc1nnc(N2CCC(C(=O)NC3CCC(C)CC3)CC2)c2nn(-c3ccc(Cl)cc3)c(C)c12 (stereo unspecified),inactive: 1.97%,–
CCN(CC)C(=O)CC(c1ccc(OC)cc1)c1c(OC)cc(OC)c2ccc(=O)oc12 (stereo unspecified),inactive: -2.21%,–
Cc1ccc2nc(/N=C(\N)NC(=O)NC3CCCCC3)nc(C)c2c1,–,active: 23.1 µM
CCN1CCN(c2c(S(=O)(=O)c3ccc(C)c(C)c3)cnc3ccc(F)cc23)CC1,inactive: 5.34%,–
O=C(Nc1cccc(O)c1)c1noc2c1CCc1ccccc1-2,inactive: -1.47%,–
Cc1ccc(-n2nc3c(N4CCC(C(=O)NCCc5ccccc5C)CC4)nnc(C)c3c2C)cc1,inactive: -4.39%,–
Cc1noc(NS(=O)(=O)c2ccc(N/C=C\C(=O)c3ccccc3)cc2)c1C,inactive: -6.11%,–
COc1ccc(Br)cc1/C=C/C(=O)c1ccc(NC(C)=O)cc1,–,active: 8.2 µM
COC(=O)c1cc2c(n1S(=O)(=O)c1ccc(C)cc1)C(=O)C(=O)c1[nH]cc(C(=O)OCc3ccccc3)c1-2,–,active: 4.11 µM
c1ccc([C@H]2CC3C[C@@H](c4ccccc4)N2O3)cc1,inactive: 1.08%,–
CC1(C)c2[nH]c3ccccc3c2C[C@@H]2C(=O)N(Cc3ccc(F)cc3)C(=O)N21,inactive: -8.1%,–
Cn1nc(-c2cccnc2)nc2c(=O)n(C)c(=O)nc1-2,–,active: 6.51 µM
O=C(N/C(=C/c1ccc(Br)cc1)c1nc2ccccc2[nH]1)c1ccco1,inactive: -4.75%,–
C=CCC[C@@H](Cc1ccc(F)cc1)C(=O)OC[C@@H](Cc1c[nH]c2ccccc12)NC(=O)[C@@H](CC=C)CC(=O)N[C@H](CO)Cc1ccccc1,inactive: -19.5%,–
C[C@@H](NC(=O)c1nc[nH]c1C(=O)N[C@@H](Cc1ccccc1)C(=O)OC(C)(C)C)c1ccccc1,inactive: -25.3%,–
